Measured values reported in the RNAGym collection of RNA variant scans (doi:10.1093/nar/gkz1192).
The source gives no read counts; variants with many changes may rest on few reads.

B1: CPEB3 Ribozyme (parent)
chain: UAACAGGGGGCCACAGCAGAAGCGUUCACGUCGCAGCCCCUGUCAGAUUCUGGUGAAUCUGCGAAUUCUGCUGUAUAUCUC

Variants of: B1
Test: self-cleavage, relative activity (ratio to wild type); higher = more cleavage; in vitro, sequencing
Method in brief: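 For each CPEB3 ribozyme variant, relative activity is its cleaved/total read fraction divided by the unmutated ribozyme's. Barcoded error-prone PCR libraries were transcribed by T7 RNA polymerase (5 hours, 37°C) and held in DNase I for 15 min before an EDTA stop, with cleavage occurring throughout. Template-switching reverse transcription and Illumina sequencing were used to read the RNAs. A 5-read minimum applied, and results are the mean of three batches.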
Work on A35U G36U A47G yielded a self-cleavage of 0.33. With A35U G42A U43A the self-cleavage was 0.17. Variant A35U G46A U78C has a self-cleavage of 0.1. A35U G55U U58C showed a self-cleavage of 0.15. A35U G63A U72C gave a self-cleavage of 0.5. Work on A35U G70C U78C yielded a self-cleavage of 0.1. Work on A35U U41A A45G U54C yielded a self-cleavage of 0.17. For A35U U41A U43A A57G A77G, the self-cleavage was 0.14. A35U U41A U58C U60A showed a self-cleavage of 0.11. For A35U U41C A45G U58C C62A, the self-cleavage was 0.09. For A35U U41C A47G A56G U76A, the self-cleavage was 0.19. A35U U41C A56G U80A gave a self-cleavage of 0.65. A35U U41C A64G gave a self-cleavage of 0.31. A35U U41C U43G A56G A77G showed a self-cleavage of 0.11. A35U U41C U54A gave a self-cleavage of 0.51. Work on A35U U41C U54C A64U yielded a self-cleavage of 0.13. Variant A35U U41C U58C has a self-cleavage of 0.34. For A35U U41C U67A A75U, the self-cleavage was 0.11. Work on A35U U41G A45G U54G A56U yielded a self-cleavage of 0. A35U U41G U49C U54A A56U A64U U69A showed a self-cleavage of 0.14. Work on A35U U43A U48A U49C yielded a self-cleavage of 0.13. For A35U U43A U51C U78A, the self-cleavage was 0.18. For A35U U43A U60C U69C, the self-cleavage was 0.23. With A35U U43A U67A the self-cleavage was 0.15. In the case of A35U U43A U72C, the self-cleavage is reported as 0.77. A35U U43C A56G A64U gave a self-cleavage of 0.17. For A35U U43C U51C G52U A64G U80G, the self-cleavage was 0.16. A35U U43C U54A A56G C71G U78C C81U gave a self-cleavage of 0.16. A35U U43C U58C showed a self-cleavage of 0.15. A35U U43G U67C U69C showed a self-cleavage of 0.16. Work on A35U U48C U49C U54C yielded a self-cleavage of 0.08. Work on A35U U48C U54C U72C yielded a self-cleavage of 0.38. Work on A35U U48C U69A yielded a self-cleavage of 0.16. Variant A35U U49C A64G U67G has a self-cleavage of 0.17. Work on A35U U49C G61U U69C U72C A75G yielded a self-cleavage of 0.08. Variant A35U U49C U60A has a self-cleavage of 0.06. For A35U U49C U76A U78C, the self-cleavage was 0.1. For A35U U51A A56U, the self-cleavage was 0.29. With A35U U51A A64G U66A A75C the self-cleavage was 0.12. For A35U U51A U72A, the self-cleavage was 0.24. A35U U51C A56C A65G gave a self-cleavage of 0.14. A35U U51C A57G A65G gave a self-cleavage of 0.18. In the case of A35U U51C U67C U78C, the self-cleavage is reported as 0.2. In the case of A35U U51C U69C A77G, the self-cleavage is reported as 0.16. With A35U U54A A64U the self-cleavage was 0.12. Variant A35U U54C U60A has a self-cleavage of 0.13. Variant A35U U54C U67C A75U has a self-cleavage of 0.07. For A35U U54C U78C, the self-cleavage was 0.45. In the case of A35U U54G U74C, the self-cleavage is reported as 0.87. Work on A35U U58A C62G yielded a self-cleavage of 0.13. In the case of A35U U60A A65C U78C, the self-cleavage is reported as 0.13. Work on A35U U60C U72C U78C yielded a self-cleavage of 0.19. Work on A35U U67A U78C C79A yielded a self-cleavage of 0.07. Variant A35U U67C A75U has a self-cleavage of 0.35. For A35U U69C U80C, the self-cleavage was 0.13. In the case of G36A A64U U78C, the self-cleavage is reported as 0.32. Variant G36A C44G C50A A65U U74C has a self-cleavage of 0.11. In the case of G36A U41A G61A U67C U78C, the self-cleavage is reported as 0.13. G36A U41A U67A U69A showed a self-cleavage of 0.04. G36A U41C C50A G52A U80C gave a self-cleavage of 0.24. With G36A U41C U51A A65C U78C the self-cleavage was 0.1. G36A U43C U69C showed a self-cleavage of 0.14. In the case of G36A U48C A57G U60A, the self-cleavage is reported as 0.08. G36A U51A G63A U66C gave a self-cleavage of 0.1. Work on G36C A45G C59U yielded a self-cleavage of 0.39. G36C A47G U69A U74C gave a self-cleavage of 0.06. For G36C A47U U54C, the self-cleavage was 0.1. For G36C C50A U60A U69C, the self-cleavage was 0.09. With G36C G52A C62A the self-cleavage was 0.13. Work on G36U A64C U78C yielded a self-cleavage of 0.1. G36U C40A A45U G63A U69C showed a self-cleavage of 0.13. With G36U U41A A75G the self-cleavage was 0.07. Work on G36U U41A A75U yielded a self-cleavage of 0.14. G36U U54G A65G gave a self-cleavage of 0.35. G36U U60C G63C U72C showed a self-cleavage of 0.11. With G36U U69C A75G the self-cleavage was 0.1. For C37A C39A U72C, the self-cleavage was 0.36. For C37A U41A A64G A65G, the self-cleavage was 0.08. C37A U41C U60C showed a self-cleavage of 0.24. Variant C37A U43C G55A A56U has a self-cleavage of 0.12. C37A U43C U74C gave a self-cleavage of 0.18. Variant C37A U43C U76C has a self-cleavage of 0.09. In the case of C37A U48C G61U, the self-cleavage is reported as 0.4. C37A U74C A75U showed a self-cleavage of 0.23. Work on C37G U43A A45U yielded a self-cleavage of 0.33. Work on C37U A45G A77U yielded a self-cleavage of 0.68. In the case of C37U A47G U69C U72A, the self-cleavage is reported as 0.16. Variant C37U A56G U78C has a self-cleavage of 0.45. Variant C37U C40A U72C U74A has a self-cleavage of 0.17. With C37U G42C U49A U66C U67A the self-cleavage was 0.09. Variant C37U U41A U49C G53U has a self-cleavage of 0.2. C37U U41C A56G U69C U72C showed a self-cleavage of 0.08. Variant C37U U41C U74C U80C has a self-cleavage of 0.86. Work on C37U U41C U80C yielded a self-cleavage of 0.81. C37U U43C U69A U72A showed a self-cleavage of 0.06. C37U U43G A56G A57G U60C U72A showed a self-cleavage of 0.06. In the case of C37U U49C G55A, the self-cleavage is reported as 0.34. In the case of C37U U51A U60G, the self-cleavage is reported as 0.19. Variant C37U U54G A64G U74C has a self-cleavage of 0.31. For C37U U60G U72C, the self-cleavage was 0.14. C38A A47G A56G gave a self-cleavage of 0.18. For C38A A56U A77G, the self-cleavage was 0.16. C38A C39U U41A U49C gave a self-cleavage of 0.09. With C38A C40G A45U U69G U74C U78C the self-cleavage was 0.07. C38A U41C A57G G73U showed a self-cleavage of 0.18. Variant C38A U41C U54C A56G U67A U72A has a self-cleavage of 0.15. For C38A U43C U51G A64U, the self-cleavage was 0.06. C38A U49C U66A showed a self-cleavage of 0.2. C38A U54C A65G gave a self-cleavage of 0.05. Variant C38G A56G C62U U76C has a self-cleavage of 0.06. C38G U41A A45U C59U U67C U69A U76G showed a self-cleavage of 0.17. C38G U43C U69C showed a self-cleavage of 0.11. C38G U54A U76C showed a self-cleavage of 0.13. In the case of C38G U60A U80G, the self-cleavage is reported as 0.04. With C38U A45G U49C A57G A77U the self-cleavage was 0.1. C38U A47G U67C showed a self-cleavage of 0.15. C38U A47U A57G U69C gave a self-cleavage of 0.12. Variant C38U A56G A57G A64G has a self-cleavage of 0.26. With C38U A56U U74C the self-cleavage was 0.79. Work on C38U A57G U58C yielded a self-cleavage of 0.33. C38U A57U U60C A65G A77U gave a self-cleavage of 0.12. For C38U C44U C59A, the self-cleavage was 0.41. Variant C38U C50A G63U U69C has a self-cleavage of 0.08. Variant C38U C50U U69A has a self-cleavage of 0.32. C38U U41C A64G showed a self-cleavage of 0.46. Work on C38U U43C U69C yielded a self-cleavage of 0.08. With C38U U43C U76C the self-cleavage was 0.42. C39A A45G A56G A65G showed a self-cleavage of 0.17. With C39A A45G U67A U69C the self-cleavage was 0.05. For C39A A47G G63A, the self-cleavage was 0.2. C39A U41C A57G U69G gave a self-cleavage of 0.1. With C39A U41C U69C the self-cleavage was 0.36. For C39A U51C G73C, the self-cleavage was 0.7. Variant C39A U58A U76C U78C has a self-cleavage of 0.08. With C39A U69G U78A the self-cleavage was 0.09. Variant C39G A47G U66C A77U has a self-cleavage of 0.26. In the case of C39G U41A A45C U54A A65G, the self-cleavage is reported as 0.09. C39U A45G U48C U69A gave a self-cleavage of 0.07. For C39U A47G U80G, the self-cleavage was 0.89. With C39U A57G U69A the self-cleavage was 0.23. Variant C39U A64G U76C has a self-cleavage of 0.49. C39U C62U G73A U80A showed a self-cleavage of 0.1. In the case of C39U U41A U74G, the self-cleavage is reported as 0.39. C39U U43A A47G U48C gave a self-cleavage of 0.06. With C39U U48A U60C U67C U72A the self-cleavage was 0.12. C39U U49A C50U showed a self-cleavage of 0.18. Work on C39U U54C A64U yielded a self-cleavage of 0.08. C39U U67C U80C showed a self-cleavage of 0.12. Variant C40A A45U U78C has a self-cleavage of 0.09. With C40A A57C C59U U69C the self-cleavage was 0.07. Work on C40A A57G A77U yielded a self-cleavage of 0.18. With C40A C62U C68A the self-cleavage was 0.1. C40A G42U A56G gave a self-cleavage of 0.1. Work on C40A G46A A56G yielded a self-cleavage of 0.16. C40A U41C U49G U74A gave a self-cleavage of 0.09. Work on C40A U41G A45G U74C A75G C79A yielded a self-cleavage of 0.34. C40A U41G U48C A57G U60C U67C U76C showed a self-cleavage of 0.05. With C40A U48C A77G the self-cleavage was 0.11. For C40A U51C U54C U67C, the self-cleavage was 0.12. With C40A U54A A57U U66C the self-cleavage was 0.09. Work on C40A U58C U60C U76A yielded a self-cleavage of 0.23. Variant C40G U43A A45G U49A U60A U67A U78C has a self-cleavage of 0.07. C40G U51A U54A showed a self-cleavage of 0.45. Variant C40G U69A U80C has a self-cleavage of 0.1. C40U A45G U67C showed a self-cleavage of 0.28. For C40U A56U A65G, the self-cleavage was 0.09. In the case of C40U A57G U60C A64U, the self-cleavage is reported as 0.07.
